Blank lines part the entries; values can stand above or below the binder they belong to.
Tests used:
[1] = target: T1, Human IL7Ra-IL2Rγ-Fc heterodimer (human, biotin on the avi tag); experiment: SPR (Example 2.4), captured via anti-P329G, receptor-Fc 2.34-300 nM, 1:1 fit
T1 construct: Extracellular domains of IL-7Ralpha and IL-2Rgamma fused to Fc knob and Fc hole; also called hu IL7Ra-IL2Rγ-Fc avi biotin; human IL7Ra-IL2Rg-Fc biotin
Description: (§1) SPR experiments were performed on a Biacore 8 K with HBS-EP + 1 mg/ml BSA as running buffer. Anti-P329G Fc specific antibody (Roche internal) was directly immobilized by amine coupling on a C1 chip (Cytiva). The PD1-IL7 constructs were captured for 140 s at 5 nM. […] The dissociation phase was monitored for 800 s and triggered by switching from the sample solution to running buffer. The chip surface was regenerated after every cycle using two injections of 10 mM glycine pH 2 for 60 sec. Bulk refractive index differences were corrected for by subtracting the response obtained on the reference flow cell (containing immobilized anti P329G Fc specific IgG only). The affinity constants were derived from the kinetic rate constants by fitting to a 1:1 Langmuir binding using the Biacore evaluation software (Cytiva).
Four IL7 single variants, two IL7 double variants and IL7 wild-type were compared to four reference molecules with modified IL7 for binding to human IL7 receptor (Table 23). The affinity of the IL7 variants to the IL7 receptor was determined using the recombinant heterodimer of the extracellular domains of the IL7 receptor alpha chain and the common IL2 receptor gamma chain.

[2] = target: T2, cynomolgus IL7Ra-IL2Rg-Fc biotin (cynomolgus, UniProt P13232;Q29615); experiment: SPR, captured via anti-P329G, receptor-Fc 2.34-300 nM, 1:1 fit
T2 construct: extracellular domain; Heterodimer of the ECD of IL7Ra and IL2Rg chains fused to an Fc; also called cynomolgus IL7Ralpha-IL2Rgamma-Fc heterodimer; cynomolgus IL7 receptor
Description: as §1, with “Surface Plasmon Resonance (SPR)” for “SPR”
(§2) Four IL7 single variants and two IL7 double variants were compared to IL7 wild-type for binding to cynomolgus IL7 receptor (Table 18). The affinity of the IL7 variants to the IL7 receptor was determined using the recombinant heterodimer of the extracellular domains of the IL7 receptor alpha chain and the common IL2 receptor gamma chain.

[3] = target: T3, IL-7Rα/IL-2Rγ on human T cells (human, UniProt P16871 21-459; P31785 23-369); experiment: cell-based or functional assay
T3 sequence (looked up) 1: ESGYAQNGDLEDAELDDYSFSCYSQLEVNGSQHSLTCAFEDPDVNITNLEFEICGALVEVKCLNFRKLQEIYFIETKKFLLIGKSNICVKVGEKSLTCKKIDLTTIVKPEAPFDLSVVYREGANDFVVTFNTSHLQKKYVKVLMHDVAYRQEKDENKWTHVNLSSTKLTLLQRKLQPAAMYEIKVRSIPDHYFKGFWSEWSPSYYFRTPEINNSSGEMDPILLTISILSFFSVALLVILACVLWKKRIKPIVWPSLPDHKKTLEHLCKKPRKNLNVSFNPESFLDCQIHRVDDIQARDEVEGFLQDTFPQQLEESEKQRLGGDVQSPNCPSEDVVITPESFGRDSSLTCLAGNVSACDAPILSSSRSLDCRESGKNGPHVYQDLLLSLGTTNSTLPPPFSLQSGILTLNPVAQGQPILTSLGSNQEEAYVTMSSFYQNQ
T3 sequence (looked up) 2: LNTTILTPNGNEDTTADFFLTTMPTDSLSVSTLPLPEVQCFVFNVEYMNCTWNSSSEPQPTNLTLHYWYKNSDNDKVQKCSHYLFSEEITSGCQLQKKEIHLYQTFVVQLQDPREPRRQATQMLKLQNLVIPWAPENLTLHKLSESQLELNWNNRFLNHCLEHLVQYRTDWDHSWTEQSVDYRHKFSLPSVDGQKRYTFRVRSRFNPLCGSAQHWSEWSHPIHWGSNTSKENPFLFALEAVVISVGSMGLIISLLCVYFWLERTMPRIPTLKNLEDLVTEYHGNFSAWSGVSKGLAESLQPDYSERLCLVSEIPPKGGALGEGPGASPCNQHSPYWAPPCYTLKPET

[4] = target: T1, Human IL7Ra-IL2Rγ-Fc heterodimer; experiment: SPR, captured via anti-P329G, receptor-Fc 2.34-300 nM, 1:1 fit
Description: as §1, with “Surface Plasmon Resonance (SPR)” for “SPR”
as §2, with “human” for “cynomolgus”, “17).” for “18).”

[5] = target: T4, murine IL7Ra-IL2Rg-Fc biotin (murine, UniProt P16872 21-239; P34902 23-263); experiment: SPR, captured via anti-P329G
T4 construct: extracellular domain; Heterodimer of the ECD of IL7Ra and IL2Rg chains fused to an Fc; also called murine IL7Ralpha-IL2Rgamma-Fc heterodimer; murine IL7 receptor; not shown: Fc part and avi tag; Fc part
T4 sequence (looked up) 1: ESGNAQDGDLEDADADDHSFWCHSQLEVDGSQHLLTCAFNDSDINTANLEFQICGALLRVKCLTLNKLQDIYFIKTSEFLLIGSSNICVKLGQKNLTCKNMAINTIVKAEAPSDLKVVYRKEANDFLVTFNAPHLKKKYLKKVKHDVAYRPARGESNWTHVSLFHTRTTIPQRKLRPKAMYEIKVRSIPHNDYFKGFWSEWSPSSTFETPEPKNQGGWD
T4 sequence (looked up) 2: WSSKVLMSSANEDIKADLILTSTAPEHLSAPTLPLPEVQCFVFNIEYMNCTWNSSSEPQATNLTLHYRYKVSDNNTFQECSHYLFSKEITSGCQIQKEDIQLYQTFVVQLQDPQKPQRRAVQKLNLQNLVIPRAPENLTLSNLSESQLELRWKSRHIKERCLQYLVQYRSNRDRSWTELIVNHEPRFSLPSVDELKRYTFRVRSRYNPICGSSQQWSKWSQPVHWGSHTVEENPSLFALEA
Description: as §1, with “Surface Plasmon Resonance (SPR)” for “SPR”
as §2, with “murine” for “cynomolgus”, “19).” for “18).”

[6] = target: T3, IL-7Rα/IL-2Rγ on human T cells; experiment: cell-based or functional assay; remark: listed apart in the source
human PD-1 on T cells [7] = target: T5, human PD-1 on T cells (human, UniProt Q15116 25-288); experiment: cell-based or functional assay
human PD-1 on T cells [8] = target: T5, human PD-1 on T cells; experiment: cell-based or functional assay; remark: listed apart in the source
T5 sequence (Q15116 25-288 limits assumed): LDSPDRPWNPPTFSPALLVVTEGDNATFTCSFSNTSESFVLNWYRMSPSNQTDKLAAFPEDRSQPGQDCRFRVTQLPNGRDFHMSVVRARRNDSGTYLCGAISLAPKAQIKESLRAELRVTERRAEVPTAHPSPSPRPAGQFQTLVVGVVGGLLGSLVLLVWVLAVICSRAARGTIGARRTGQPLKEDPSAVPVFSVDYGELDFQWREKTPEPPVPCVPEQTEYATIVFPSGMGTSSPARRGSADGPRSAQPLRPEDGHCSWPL

[9] = target: T3, IL-7Rα/IL-2Rγ on human T cells; experiment: cell-based or functional assay; remark: listed apart in the source
[10] = target: T1, Human IL7Ra-IL2Rγ-Fc heterodimer; experiment: SPR (Example 2.4), captured via anti-P329G, receptor-Fc 2.34-300 nM, 1:1 fit, single value
Description: as §1

[11] = target: T1, Human IL7Ra-IL2Rγ-Fc heterodimer; experiment: SPR, captured from supernatant, 800 nM receptor-Fc single injection
Procedure, shortened: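 Single-injection SPR: 800 nM hu IL7Ra-IL2Rγ-Fc (ECDs fused to Fc, HEK-expressed, Protein A/SEC-purified) flowed 240 s over PDI-IL7 captured via anti-Fc antibody (100 nM, 120 s), then 360 s dissociation in HBS-EP+. Outputs: binding-to-capture ratio and koff fitted to dissociation, reference flow cell subtracted.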

[12] = target: T3, IL-7Rα/IL-2Rγ on human T cells; experiment: cell-based or functional assay; remark: listed apart in the source
human PD-1 on T cells [13] = target: T5, human PD-1 on T cells; experiment: cell-based or functional assay; remark: listed apart in the source

- Kd [1]: 129 nM
- koff [1]: 0.0124 s⁻¹
- kon [1]: 96400 M⁻¹ s⁻¹
- Kd [2]: 155 nM
- koff [2]: 0.0251 s⁻¹
- kon [2]: 162000 M⁻¹ s⁻¹
- EC50[active] / EC50 [active PD1-IL7wt] [3]: 27.4 fold
- EC50[fresh]/EC50 [fresh PD1-IL7wt] [3]: 304 fold
- STAT5-P AUC [active] [3]: 81
- STAT5-P AUC [fresh] [3]: 143
- Kd [4]: 121 nM
- koff [4]: 0.0162 s⁻¹
- kon [4]: 135000 M⁻¹ s⁻¹
- EC50 [PD1+]/ EC50[PD1-IL7wt] [6]: 16.5 fold
- STAT5-P AUC PD1+ [6]: 58
- STAT5-P AUC PD1 blocked [6]: 12.9
- EC50 [PD1blocked]/ EC50 [PD1+] (human PD-1 on T cells [7]): 109 fold
B1: PD1-IL7-VAR18 (K81E) VAR20 (G85K) (other)
light: DIVMTQSPDSLAVSLGERATINCKASESVDTSDNSFIHWYQQKPGQSPKLLIYRSSTLESGVPDRFSGSGSGTDFTLTISSLQAEDVAVYYCQQNYDVPWTFGQGTKVEIKRTVAAPSVFIFPPSDEQLKSGTASVVCLLNNFYPREAKVQWKVDNALQSGNSQESVTEQDSKDSTYSLSSTLTLSKADYEKHKVYACEVTHQGLSSPVTKSFNRGEC
heavy 1: EVQLLESGGGLVQPGGSLRLSCAASGFSFSSYTMSWVRQAPGKGLEWVATISGGGRDIYYPDSVKGRFTISRDNSKNTLYLQMNSLRAEDTAVYYCVLLTGRVYFALDSWGQGTLVTVSSASTKGPSVFPLAPSSKSTSGGTAALGCLVKDYFPEPVTVSWNSGALTSGVHTFPAVLQSSGLYSLSSVVTVPSSSLGTQTYICNVNHKPSNTKVDKKVEPKSCDKTHTCPPCPAPEAAGGPSVFLFPPKPKDTLMISRTPEVTCVVVDVSHEDPEVKFNWYVDGVEVHNAKTKPREEQYNSTYRVVSVLTVLHQDWLNGKEYKCKVSNKALGAPIEKTISKAKGQPREPQVCTLPPSRDELTKNQVSLSCAVKGFYPSDIAVEWESNGQPENNYKTTPPVLDSDGSFFLVSKLTVDKSRWQQGNVFSCSVMHEALHNHYTQKSLSLSPGK
heavy 2: EVQLLESGGGLVQPGGSLRLSCAASGFSFSSYTMSWVRQAPGKGLEWVATISGGGRDIYYPDSVKGRFTISRDNSKNTLYLQMNSLRAEDTAVYYCVLLTGRVYFALDSWGQGTLVTVSSASTKGPSVFPLAPSSKSTSGGTAALGCLVKDYFPEPVTVSWNSGALTSGVHTFPAVLQSSGLYSLSSVVTVPSSSLGTQTYICNVNHKPSNTKVDKKV[human IgG1 Fc with changes left out]GGGGSGGGGSGGGGSDCDIEGKDGKQYESVLMVSIDQLLDSMKEIGSNCLNNEFNFFKRHICDANKEGMFLFRAARKLRQFLKMNSTGDFDLHLLEVSEKTTILLNCTGQVKGRKPAALGEAQPTKSLEENKSLKEQKKLNDLCFLKRLLQEIKTCWNKILMGTKEH
notes: Format as m1; IL-7 with K81E and G85K; also called PD1-IL7 VAR18/20 (K81E/G85K); PD1-IL7VAR18/20
- binding result [5]: no binding (tested: 2.34 to 300 nM receptor-Fc)

- Kd [1]: 14.1 nM
- koff [1]: 0.00141 s⁻¹
- kon [1]: 101000 M⁻¹ s⁻¹
- STAT5-P activity, PD-1 pre-blocked versus PD-1+ T cells (human PD-1 on T cells [8]): > 60 fold
- STAT5-P Area (PD1+) [9]: 62.5
- STAT5-P Area (PD1 blocked) [9]: 15.3
B2: Reference Molecule 6 (other)
light: B1 light
heavy 1: B1 heavy 1
heavy 2: EVQLLESGGGLVQPGGSLRLSCAASGFSFSSYTMSWVRQAPGKGLEWVATISGGGRDIYYPDSVKGRFTISRDNSKNTLYLQMNSLRAEDTAVYYCVLLTGRVYFALDSWGQGTLVTVSSASTKGPSVFPLAPSSKSTSGGTAALGCLVKDYFPEPVTVSWNSGALTSGVHTFPAVLQSSGLYSLSSVVTVPSSSLGTQTYICNVNHKPSNTKVDKKV[human IgG1 Fc with changes left out]GGGGSGGGGSGGGGSDSDIEGKDGKQYESVLMVSIDQLLDSMKEIGSNCLNNEFNFFKRHISDANKEGMFLFRAARKLRQFLKMNSTGDFDLHLLKVSEGTTILLNSTGQVKGRKPAALGEAQPTKSLEENKSLKEQKKLNDLCFLKRLLQEIKTSWNKILMGTKEH
notes: Format as m1; IL-7 SS2 (C2S/C141S, C47S/C92S); also called P1AF9648-033

- Kd [10]: 116 nM
- koff [10]: 0.0196 s⁻¹
- kon [10]: 170000 M⁻¹ s⁻¹
- koff [11]: 0.00741 s⁻¹
- fold increase in EC50, EC50 [PD1+]/EC50 PD1-IL7wt [PD1+] [12]: 9.3 fold
- fold increase in EC50, EC50 [with PD1bl]/EC50 [PD1+] (human PD-1 on T cells [13]): 25000 fold
- Kd [2]: 142 nM
- koff [2]: 0.051 s⁻¹
- kon [2]: 360000 M⁻¹ s⁻¹
- Kd [4]: 75.8 nM
- koff [4]: 0.0143 s⁻¹
- kon [4]: 189000 M⁻¹ s⁻¹
B3: PD1-IL7-VAR20 (G85K) (other)
light: B1 light
heavy 1: B1 heavy 1
heavy 2: EVQLLESGGGLVQPGGSLRLSCAASGFSFSSYTMSWVRQAPGKGLEWVATISGGGRDIYYPDSVKGRFTISRDNSKNTLYLQMNSLRAEDTAVYYCVLLTGRVYFALDSWGQGTLVTVSSASTKGPSVFPLAPSSKSTSGGTAALGCLVKDYFPEPVTVSWNSGALTSGVHTFPAVLQSSGLYSLSSVVTVPSSSLGTQTYICNVNHKPSNTKVDKKV[human IgG1 Fc with changes left out]GGGGSGGGGSGGGGSDCDIEGKDGKQYESVLMVSIDQLLDSMKEIGSNCLNNEFNFFKRHICDANKEGMFLFRAARKLRQFLKMNSTGDFDLHLLKVSEKTTILLNCTGQVKGRKPAALGEAQPTKSLEENKSLKEQKKLNDLCFLKRLLQEIKTCWNKILMGTKEH
notes: Format as m1; IL-7 with G85K; also called PD1-IL7 -G85K (Var20); P1AF5557-006
- binding result [5]: no binding (tested: 2.34 to 300 nM receptor-Fc)
